# About 930 (0.24%) of roughly 390,000 compounds were called active. Inconclusive results, whose numbers are uncertain, are shown with a selection of clear calls. The call rests on the fitted dose curve; in most records, active means well fitted activation curve with a large enough effect; inconclusive means small, poorly fitted or top-dose-only effect; inactive means no such curve, though single readings can be large or run the other way. Where the call is inconclusive, the potency comes from a doubtful curve fit.
# Experiment: qHTS for Suppressors of FUS Proteinopathy: Primary screen using FUS-linked yeast assay; further: nearly all actives have a fitted effect of over 55% in size;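 on growth rescue (activation): plate controls were DMSO vehicle for no effect and reference control for full effect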
# Details: S. cerevisiae FUS-expressing, OD600, 24 h; Potency: growth rescue; growth rescue (activation): at 76.6 µM (top of the series)
# Outline: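 Cultures pregrown in 2.5% raffinose medium are shifted to minimal medium containing 2% galactose to express toxic FUS. Compounds are tested at several concentrations. After 24hr at 30C, growth is quantified at 600 nm absorbance.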
# Potency means the concentration at half of the fitted maximal effect; tags describe the fitted curve by direction and shape.
Compound,growth rescue (activation),Potency
O=C1c2ccccc2-c2nc3ccccc3nc21,inactive: -1.16%,
Cc1nc2sc(C#N)c(N)c2c2c1CCCC2,inactive: 22.8%,
Cc1ccsc1/C=C/C1=Cc2c(sc(NC(=O)CSc3n[nH]c(N)n3)c2C#N)C(C)(C)C1,,active: 25.1 µM
CC(C)(CNC(=O)CCC1CCCC1)CNC(=O)CCC1CCCC1,,"inconclusive: 17.8 µM [activator, partial curve]"
CCCCNC(=O)C[C@@H]1C[C@@]2(C(=O)OCC)CCC=C2N(Cc2ccccc2)C1=O,,"inconclusive: 28.2 µM [activator, partial curve, poor fit]"
COCOCCn1cc(CN2CCS(=O)(=O)N(Cc3ccc(-c4cccc(N(C)C)c4)cc3)C(C(C)C)C2=O)nn1 (stereo not given),,"inconclusive: 28.2 µM [activator, single point]"
COC(=O)[C@@]12C[C@@H](CC(=O)NCc3ccc(OC)c(OC)c3)C(=O)N(Cc3ccccc3)C1=CCC(C)(C)C2,,"inconclusive: 15.8 µM [activator, partial curve, poor fit]"
N#Cc1c(N2CCCC(O)C2)nc(N)c2c(N)nc3c(c12)CC(=O)N3C12CC3CC(CC(C3)C1)C2 (stereo not given),,"inconclusive: 20 µM [activator, partial curve, poor fit]"
C#Cc1ccc([C@H]2C=C(C(=O)OCC=C)O[C@@H](OCCCCO)C2)cc1,,"inconclusive: 28.2 µM [activator, partial curve, poor fit]"
COc1cccc(OCc2cc(C(=O)N3CCN(c4ccccc4OC)CC3)no2)c1,,"inconclusive: 12.6 µM [activator, single point]"
COc1ccc(CNC(=O)c2ccc(NC(=O)N3CC4CCCN4c4ccccc43)cc2)cc1 (stereo not given),,"inconclusive: 25.1 µM [activator, partial curve, poor fit]"
O=C(NCCC1=CCCCC1)c1ccc2c(c1)N(Cc1ccccc1F)C(=O)c1ccccc1S2=O (stereo not given),,"inconclusive: 39.8 µM [activator, partial curve, poor fit]"
CCc1cccc(-n2c(=O)c3cccnc3n2CC(=O)NCc2ccccc2)c1,,"inconclusive: 28.2 µM [activator, single point]"
CCCCC[C@@H]1C=C(C(=O)O)[C@H](c2ccc(F)cc2)N1S(=O)(=O)c1ccc(C)cc1,inactive: 22.8%,
CCCNS(=O)(=O)c1ccc2nc(NC(=O)c3ccc(F)cc3)sc2c1,inactive: -2.84%,
COc1ccc(C2NC(=O)NC(C)=C2C(=O)OC2CCCC(C)C2)cc1 (stereo not given),,"inconclusive: 31.6 µM [activator, partial curve, poor fit]"
CCc1cccc(NC(=O)c2cn3c4c(ccc(Cl)c4c2=O)OC(C)C3)c1 (stereo not given),inactive: -11.6%,
COc1cc2cc(CNc3ccccc3)c(=O)n(CC(=O)Nc3ccccc3)c2cc1OC,,"inconclusive: 20 µM [activator, partial curve, poor fit]"
Cc1ccc(-c2nn(C)c(=O)c3ccccc23)cc1CNC(=O)/C=C/c1ccccc1,,"inconclusive: 31.6 µM [activator, single point]"
COc1cc(NS(=O)(=O)c2cnc(N)nc2)cc(OC)c1,inactive: -7.96%,

Compound,growth rescue (activation),Potency
COC(=O)[C@]12CCCCC=C1N(CCc1ccc(OC)c(OC)c1)C(=O)[C@H](CC(=O)N1CCN(C(=O)C3CC3)CC1)C2,,"inconclusive: 15.8 µM [activator, partial curve, poor fit]"
COc1ccc(NC(=O)CSc2ccc3nc(-c4ccccc4)cn3n2)c(OC)c1,,"inconclusive: 39.8 µM [activator, partial curve, poor fit]"
COc1ccc(-c2csc(C(O)c3cccnc3)n2)cn1 (stereo not given),inactive: -23.5%,
Cc1ccc(-c2c(CC(=O)O)c(C)nc3sc4c(c23)CCCC4)cc1,,"inconclusive: 31.6 µM [activator, single point]"
CC1CC(C)CN(S(=O)(=O)c2ccc(C(=O)N(C)Cc3ccccc3)cc2)C1 (stereo not given),,"inconclusive: 50.1 µM [activator, single point]"
O=C(c1ccco1)N1CCN(CC(O)Cn2c3ccccc3c3ccccc32)CC1 (stereo not given),inactive: -7.28%,
CCOc1ccc(-n2c(SCC(=O)Nc3cccc4ccccc34)nnc2-c2ccco2)cc1,,"inconclusive: 22.4 µM [activator, partial curve, poor fit]"
O=C(Nc1ccc(S(=O)(=O)N2CCCCC2c2cccnc2)cc1)c1ccc(Br)cc1 (stereo not given),,"inconclusive: 44.7 µM [activator, single point]"
CCc1nc2ccc(C(=O)N(C)CCCN(C)C)cn2c1N(C)Cc1cc2ccccc2s1,inactive: -17.5%,
CCCCC1=CC2=CC(=O)C(C)(OC(=O)CC)C(=O)C2=CN1CCc1ccc(Br)cc1 (stereo not given),inactive: 28.4%,
COCC(=O)N1CC[C@H]2[C@@H]1c1cc(-c3cccc(OC)c3)ccc1N(C)[C@H]2CO,inactive: 12.4%,
COc1ccccc1CCNC(=O)C(=O)NCC(c1cccs1)S(=O)(=O)c1cccs1 (stereo not given),inactive: 3.18%,
COc1ccc(NC(=O)c2cccc(-n3c(C)ccc3C)c2)c(OC)c1,,"inconclusive: 56.2 µM [activator, partial curve, poor fit]"
COc1ccc(CCNC(=O)c2ccc3c(c2)CCN3S(=O)(=O)c2ccc(C)cc2)cc1,,"inconclusive: 20 µM [activator, single point]"
O=C(NC1CCCCN(Cc2cccc(C(F)(F)F)c2)C1=O)c1ccc(Cl)c(Cl)c1 (stereo not given),inactive: 18%,
COc1ccc(Cn2ccc3ccc(-c4ccc5ccn(Cc6ccc(C#N)cc6)c5c4)cc32)cc1,inactive: 22.7%,
COC(=O)C(Cc1ccc(OC(=O)c2ccc(C)cc2)cc1)N1Cc2ccccc2C1=O (stereo not given),,"inconclusive: 6.31 µM [activator, single point]"
CCOC(=O)c1ccc(Nc2nc3ccc(C(=O)c4ccccc4)cc3n3c(C)nnc23)cc1,inactive: -0.216%,
Cc1ccc(C(=O)NCC(=O)OCC(=O)N(CC(C)C)c2c(N)n(Cc3ccccc3)c(=O)[nH]c2=O)cc1C,,"inconclusive: 28.2 µM [activator, single point]"
Cc1ccc(/C=C2\SC(=S)N(C3CCS(=O)(=O)C3)C2=O)o1 (stereo not given),,"inconclusive: 25.1 µM [activator, single point]"

# Reference: PubChem BioAssay AID1347120 (National Center for Advancing Translational Sciences (NCATS), 2019)
